Experimental data: the BET-seq Pho4 binding data (Le et al. 2018)
This is one part of the list. The energies were worked out here from pooled read counts, against the library average; single values are noisy.

molecular target: T1, Pho4 (S. cerevisiae) (UniProt P07270); test: relative binding free energy (BET-seq); higher = weaker binding; settings: reference: library average
T1 sequence: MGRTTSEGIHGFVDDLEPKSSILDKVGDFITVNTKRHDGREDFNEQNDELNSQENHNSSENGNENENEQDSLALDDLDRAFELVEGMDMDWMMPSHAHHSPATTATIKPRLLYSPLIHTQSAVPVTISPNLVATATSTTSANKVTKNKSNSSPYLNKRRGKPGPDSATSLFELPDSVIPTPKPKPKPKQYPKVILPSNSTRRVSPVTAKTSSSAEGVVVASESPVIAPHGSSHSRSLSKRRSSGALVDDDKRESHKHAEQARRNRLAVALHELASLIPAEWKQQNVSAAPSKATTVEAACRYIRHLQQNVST

Sequence | relative binding free energy
AAAAGCACGTGGATAG | 0.01 kcal/mol
TCTTGCACGTGATATT | -0.03 kcal/mol
AGTCGCACGTGGTGTA | -0.18 kcal/mol
AGCGGCACGTGATGGG | -0.06 kcal/mol
TCGGGCACGTGAATAG | 0.22 kcal/mol
GAGTGCACGTGTAGAT | 0.19 kcal/mol
TCGTACACGTGACGGG | 0.23 kcal/mol
GTTTTCACGTGGTACT | 0.16 kcal/mol
TAGGCCACGTGAAGTG | 0.36 kcal/mol
TTTGGCACGTGTTACG | -0.1 kcal/mol
GGAGGCACGTGTACTT | -0.04 kcal/mol
AAATTCACGTGTTTGG | 0.27 kcal/mol
TTGTTCACGTGGGGCT | 0.16 kcal/mol
TAGAACACGTGGGCTT | -0.06 kcal/mol
AGTAGCACGTGTGGTA | 0.01 kcal/mol
TTTTCCACGTGGTGGT | 0 kcal/mol
AATTGCACGTGATTAA | 0.05 kcal/mol
TGTACCACGTGGGGTA | -0.28 kcal/mol
TGGGCCACGTGTAGGG | -0.01 kcal/mol
CTTTTCACGTGGTGCT | 0.04 kcal/mol
ACAGTCACGTGTAAGT | 0.15 kcal/mol
TTAATCACGTGGAGTA | 0.08 kcal/mol
AGATTCACGTGGTATG | 0.18 kcal/mol
TTATTCACGTGTCGAG | 0.31 kcal/mol
ATCTTCACGTGGAGTG | 0.27 kcal/mol

Sequence | relative binding free energy
TTGCCCACGTGGGTAT | -0.1 kcal/mol
CGTATCACGTGTGGGG | 0.16 kcal/mol
TTATTCACGTGTAGTC | 0.33 kcal/mol
ATATTCACGTGATTGG | 0.36 kcal/mol
TCTATCACGTGTGATT | 0.2 kcal/mol
TTCATCACGTGGCTGT | 0.15 kcal/mol
GTAGGCACGTGTCGGC | -0.05 kcal/mol
TTGGGCACGTGTCCTG | -0.14 kcal/mol
ACGCTCACGTGAGGGG | 0.26 kcal/mol
AGGGACACGTGGGCAT | -0.18 kcal/mol
AGTCTCACGTGTTGGT | 0.08 kcal/mol
GCGGGCACGTGTTGCG | -0.03 kcal/mol
TGTTGCACGTGGTCTC | -0.09 kcal/mol
TATGGCACGTGCGTGA | -0.06 kcal/mol
TACAGCACGTGGTTGA | -0.18 kcal/mol
TATATCACGTGGTGAG | 0.06 kcal/mol
TTTTACACGTGATATA | 0.14 kcal/mol
AAGGGCACGTGGTGCG | -0.19 kcal/mol
TTCTTCACGTGATATA | 0.29 kcal/mol
AATATCACGTGGGGAT | 0.08 kcal/mol
TCGGTCACGTGTGGCT | 0.27 kcal/mol
AGAGGCACGTGGTGTG | -0.21 kcal/mol
CTTTGCACGTGGTAAT | -0.15 kcal/mol
GGTACCACGTGAAGGT | 0.14 kcal/mol
TATAACACGTGGAAGT | 0 kcal/mol

Sequence | relative binding free energy
CATGTCACGTGATGAG | 0.12 kcal/mol
CCGTTCACGTGGAGTG | 0.21 kcal/mol
TTTTTCACGTGGAGGG | 0.37 kcal/mol
ATGGCCACGTGTGCTG | -0.06 kcal/mol
TGCAGCACGTGTTGAG | 0 kcal/mol
GGGGGCACGTGTGACA | 0.01 kcal/mol
GGTGGCACGTGGGGAG | -0.13 kcal/mol
GCATGCACGTGATGTT | 0.17 kcal/mol
GCAGACACGTGGTGGA | 0.03 kcal/mol
TAGAGCACGTGGGGAT | -0.1 kcal/mol
CGGGGCACGTGCGTGA | -0.31 kcal/mol
TGTTACACGTGTCTTA | -0.02 kcal/mol
GTTTGCACGTGGGTGG | -0.03 kcal/mol
AGTGTCACGTGTCTTT | 0 kcal/mol
AGGTACACGTGAATGT | 0.18 kcal/mol
TGCGGCACGTGTCGAG | -0.09 kcal/mol
TTTGACACGTGACGTT | -0.13 kcal/mol
AGTATCACGTGGTGCG | 0.06 kcal/mol
GGAATCACGTGTGTAG | 0.16 kcal/mol
GATTGCACGTGGGTGC | -0.13 kcal/mol
TAGAGCACGTGCTAGG | -0.25 kcal/mol
TGGGGCACGTGTGCAC | -0.16 kcal/mol
TGGTACACGTGTGACG | 0.12 kcal/mol
CTAATCACGTGGTAGT | 0.1 kcal/mol
CTTATCACGTGGGGCT | -0.02 kcal/mol

Sequence | relative binding free energy
TCGGCCACGTGGTGGT | -0.16 kcal/mol
GGTTTCACGTGCTAAT | 0.23 kcal/mol
TCGTGCACGTGTGAAG | 0.01 kcal/mol
TGAGGCACGTGTGTTA | -0.16 kcal/mol
AGTATCACGTGGTTAT | -0.03 kcal/mol
ATATACACGTGTTGAT | -0.16 kcal/mol
GTGGCCACGTGGTATG | -0.17 kcal/mol
ATGGTCACGTGTAAGG | 0.28 kcal/mol
AGCTACACGTGATGTG | 0.17 kcal/mol
GGTGGCACGTGGAGTA | -0.02 kcal/mol
AATTTCACGTGTATGG | 0.25 kcal/mol
TGTGCCACGTGATGGT | 0.02 kcal/mol
ACAGGCACGTGGTTGT | -0.21 kcal/mol
AACTGCACGTGTTGGT | 0.09 kcal/mol
TATCACACGTGGGGGA | 0.05 kcal/mol
CAGGTCACGTGCGGCG | 0.1 kcal/mol
CTATACACGTGTGTTA | -0.02 kcal/mol
TAAGGCACGTGGCTGG | -0.22 kcal/mol
TGCACCACGTGTTGGG | -0.14 kcal/mol
ATTTCCACGTGAGTGG | 0.16 kcal/mol
TTGTTCACGTGGTGTT | 0.28 kcal/mol
GTTGTCACGTGGCGTG | 0.15 kcal/mol
TAGTTCACGTGATTTA | 0.27 kcal/mol
AGTCACACGTGGGTGA | -0.08 kcal/mol
TTTATCACGTGGCGAT | 0.09 kcal/mol

Sequence | relative binding free energy
CGTCTCACGTGATAGG | 0.37 kcal/mol
AACGACACGTGGTGGT | -0.08 kcal/mol
AAGGGCACGTGTTATA | -0.17 kcal/mol
AGAGTCACGTGTATTT | 0.11 kcal/mol
CTTTTCACGTGTACTT | 0.17 kcal/mol
GGTCTCACGTGTACGT | 0.36 kcal/mol
ATTATCACGTGCAGTG | 0.15 kcal/mol
TTGTGCACGTGAGACT | 0.1 kcal/mol
TGATGCACGTGTGACT | 0.02 kcal/mol
CTGTGCACGTGCGAGT | -0.1 kcal/mol
TAGTGCACGTGAAGGT | 0.21 kcal/mol
TGAAACACGTGTTTTT | -0.07 kcal/mol
ATGGTCACGTGGATGA | 0.13 kcal/mol
ATGGGCACGTGTCCGG | -0.1 kcal/mol
TATATCACGTGAGGTA | 0.2 kcal/mol
TAGTTCACGTGTGCGT | 0.33 kcal/mol
CGGCGCACGTGAGGCG | 0.11 kcal/mol
GGGCGCACGTGTTAAT | 0.06 kcal/mol
ACCGTCACGTGTTTTG | 0.22 kcal/mol
GTAGACACGTGATGGT | 0.07 kcal/mol
CTTGTCACGTGATCGT | 0.21 kcal/mol
GTCGGCACGTGATGGT | 0.06 kcal/mol
GAAGGCACGTGTGTTA | -0.03 kcal/mol
CTAGTCACGTGGGGAT | -0.14 kcal/mol
GCGCTCACGTGTGGGG | 0.25 kcal/mol

Sequence | relative binding free energy
CATTTCACGTGATGGT | 0.23 kcal/mol
CAGAACACGTGTGGGA | 0.15 kcal/mol
TGTCGCACGTGGGAGT | -0.14 kcal/mol
TGTACCACGTGGTCTT | -0.07 kcal/mol
AGGATCACGTGGCTGG | 0.02 kcal/mol
TCTATCACGTGTGGCT | 0.31 kcal/mol
GGGAACACGTGTGATT | 0.17 kcal/mol
ATGTACACGTGAGATT | 0.12 kcal/mol
GAGCGCACGTGTTGTG | -0.08 kcal/mol
ATGTCCACGTGATTAT | 0.25 kcal/mol
CAGGGCACGTGTCTTT | 0.02 kcal/mol
TTTGACACGTGAGATA | 0.17 kcal/mol
AATAACACGTGAGTGG | 0.09 kcal/mol
TAGGCCACGTGAGTTT | 0.1 kcal/mol
TTATACACGTGTGGAG | 0.14 kcal/mol
AGTTACACGTGAAGAT | 0.34 kcal/mol
TAGCACACGTGTTTGG | 0.03 kcal/mol
AATGTCACGTGTACGT | 0.04 kcal/mol
GGGTGCACGTGGCGAA | -0.08 kcal/mol
ATTGGCACGTGGCTGA | -0.29 kcal/mol
ATGCACACGTGGTTAT | 0 kcal/mol
